We go through 1 molecule from patent publication US11242407B2, “High-affinity anti-MERTK antibodies and uses thereof” (Rgenix, Inc., priority 2019, dated 2022).

In data set [1] the target is T1, MERTK (Homo sapiens, UniProt Q12866).
T1 sequence (Q12866 21-999): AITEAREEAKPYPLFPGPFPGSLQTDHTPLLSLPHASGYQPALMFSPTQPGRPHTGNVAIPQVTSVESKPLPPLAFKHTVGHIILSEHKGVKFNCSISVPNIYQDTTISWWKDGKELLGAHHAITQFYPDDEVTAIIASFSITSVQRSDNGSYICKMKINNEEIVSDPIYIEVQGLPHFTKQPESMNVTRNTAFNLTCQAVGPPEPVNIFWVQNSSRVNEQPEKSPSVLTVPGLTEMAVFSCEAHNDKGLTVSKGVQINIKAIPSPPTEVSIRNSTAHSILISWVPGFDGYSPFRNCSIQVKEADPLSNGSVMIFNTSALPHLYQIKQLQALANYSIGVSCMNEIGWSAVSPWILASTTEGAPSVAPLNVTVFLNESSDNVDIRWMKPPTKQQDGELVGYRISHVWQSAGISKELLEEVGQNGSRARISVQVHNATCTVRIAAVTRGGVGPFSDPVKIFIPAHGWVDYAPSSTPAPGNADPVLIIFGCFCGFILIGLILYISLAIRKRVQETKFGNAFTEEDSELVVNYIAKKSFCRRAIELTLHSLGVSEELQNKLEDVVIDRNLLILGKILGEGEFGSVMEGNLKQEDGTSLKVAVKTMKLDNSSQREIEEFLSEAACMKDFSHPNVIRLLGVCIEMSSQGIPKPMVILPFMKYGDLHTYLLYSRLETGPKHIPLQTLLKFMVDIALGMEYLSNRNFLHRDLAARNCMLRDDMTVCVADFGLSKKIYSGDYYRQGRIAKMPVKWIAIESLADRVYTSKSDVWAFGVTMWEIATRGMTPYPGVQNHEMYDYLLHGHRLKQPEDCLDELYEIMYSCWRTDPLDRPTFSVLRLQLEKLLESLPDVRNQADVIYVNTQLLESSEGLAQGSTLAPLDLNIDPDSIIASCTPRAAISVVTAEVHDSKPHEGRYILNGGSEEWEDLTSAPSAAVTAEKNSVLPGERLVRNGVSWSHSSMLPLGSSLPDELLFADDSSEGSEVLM
In words: Internalization assay (pHrodo-labeled z10, SKMEL5). It is filed as cell-based. Details: MERTK expressing melanoma cells (SKMEL5) were incubated with increasing concentrations; host or cells: SKMEL5 human melanoma cells. The conditions noted are these: SKMEL5 cells, after 24 h of incubation. On the procedure:
Z10 and human IgG control (R&D Systems) were labeled with pHrodo Red, a pH-sensitive dye, using pHrodo Red Microscale Labeling Kit (ThermoFisher, Cat #) according to the manufacturer's instructions. Internalization of antibody was determined by flow cytometry detecting pHrodo fluorescence, which is minimal at neutral pH and maximal in acidic environments, such as the lysosomes. […] The cells were harvested with Cell Dissociation Buffer (ThermoFisher), washed twice, strained through a 70 μm filter, and resuspended in 200 μL FACS buffer (2% BSA, 10 mM EDTA, 25 mM HEPES, 0.1% sodium azide in Ca/Mg-free PBS) containing 10% human AB serum. Cells were sequentially stained with BV421-conjugated antibodies against MERTK for 20 min on ice, and then stained with Fixable Viability Dye (eFluor 780) for 20 min on ice. 5,000 event multispectral images were acquired for each sample by ImageStream Imaging Flow Cytometer (Aminis). Single color control samples were used to create a compensation matrix, and resulting compensated data were analyzed by IDEA software (Amnis) and GraphPad Prism.

For data set [2], the system named is SKMEL5 melanoma cells. In words: Viability assay with z10 (CellTiter-Glo), SKMEL5. The conditions noted are these: SKMEL5, day 4, versus IgG control. The data set is classed as cell-based, human.
The subject of data set [3] is Gas6-induced AKT phosphorylation. The data set is described as follows: Gas6-induced AKT phosphorylation in SKMEL5 cells (Western blot). The data set is classed as cell-based, human. The conditions noted are these: 0.3 μg/mL for 2 hours, then Gas6 200 nM for 10 minutes. How it is done: (§1) Whole-cell lysates were prepared in RIPA buffer (Sigma, 20-188) containing protease inhibitor (Sigma, 4693159001) and phosphatase inhibitor (Sigma, P2850 and P5726). Protein concentrations were measured using BCA Protein Assay Kit (ThermoFisher, 23225). Equal protein amounts were loaded on 4-20% Tris-Glycine gel (Bio-Rad, 4561094), then transferred to PVDF membranes (Bio-Rad, 1620177). After blocking with 5% BSA, membranes were probed with primary antibodies for 1 hr at room temperature. Bound antibodies were detected with HRP-conjugated secondary antibodies (Sigma, AP187P and AP181P) and visualized by ECL Western Blotting Substrate (ThermoFisher, 32106), using ChemiDoc Imaging Systems (Bio-Rad).

In data set [4] the test system is CD14+ monocytes. The data set is described as follows: Cytokine response of CD14+ monocytes. It is filed as cell-based, human. The conditions noted are these: 1 μg/mL, 24 hours, relative to control IgG. On the procedure: (§2) PBMC-Derived Cell Culture and Macrophage Differentiation
(§3) The intermediate layer containing PBMCs was collected and cells washed with PBS with 2 mM EDTA three times. […] To measure cytokines, cell culture supernatants were collected and sent to Eve Technologies, Canada for Human Cytokine/Chemokine Array (HD42) analysis.

Data set [5] concerns M2 macrophages. In words: Cytokine response of M2 macrophages. The data set is classed as cell-based, human. The conditions noted are these: 1 μg/mL, 48 hours, relative to control IgG. On the procedure:
as §2, §3

For data set [6], the system named is RPMI8226 multiple myeloma cells. The data set is described as follows: Viability assay with z10 (CellTiter-Glo), RPMI8226. The conditions noted are these: RPMI8226, day 6, versus IgG control. The data set is classed as cell-based, human. (ATP-based viability assays read luminescence as a measure of living cells.)
Data set [7] has as its target T1, MERTK. The data set is described as follows: Western blot of MERTK degradation in in vitro differentiated M2 macrophages. It is filed as cell-based. The conditions noted are these: 0.3 μg/mL. Further details: MERTK expressing melanoma cells (SKMEL5) were incubated with increasing concentrations; host or cells: SKMEL5 human melanoma cells. On the procedure:
as §2, §3, §1
(In general: A western blot detects proteins with antibodies after separation by electrophoresis.)

Data set [8] has as its target T1, MERTK. In words: Western blot of MERTK degradation in SKMEL5 cells. It is filed as cell-based. Details: MERTK expressing melanoma cells (SKMEL5) were incubated with increasing concentrations; host or cells: SKMEL5 human melanoma cells. On the procedure:
as §1

For data set [9], the system named is MERTK-expressing M2 macrophages.

B1: z10: humanized anti-MERTK antibody; heavy chain SEQ ID NO: 112, light chain SEQ ID NO: 113 (antibody)
heavy: QVQLVQSGAEVKKPGASVKVSCKASGYTFTNYGMNWVRQAPGQGLEWMGWINTYTGEPTYADDFKGRVTFTTDTSTSTAYMELRSLRSDDMAVYYCARKSTVVSRYFDVWGQGTTVTVSSASTKGPSVFPLAPSSKSTSGGTAALGCLVKDYFPEPVTVSWNSGALTSGVHTFPAVLQSSGLYSLSSVVTVPSSSLGTQTYICNVNHKPSNTKVDKRV[human IgG1 Fc omitted]
light: DIQMTQSPSFLSASVGDRVTITCKASQDVGDAVTWYQQKPGKAPKLLIYWASTRHTGVPDRFSGSGSGTDFTLTISSLQPEDFATYYCQQYRSYPLTFGQGTKLEIKRTVAAPSVFIFPPSDEQLKSGTASVVCLLNNFYPREAKVQWKVDNALQSGNSQESVTEQDSKDSTYSLSSTLTLSKADYEKHKVYACEVTHQGLSSPVTKSFNRGEC
modifications: Antibody z10 Heavy Chain; Antibody z10/z11/z13 Light Chain
Take B1: in [1], the “MERTK signal detected on the cell surface” value is listed as under 20%. Further, the “location of the MERTK signal” value in data set [1] is reported as “the majority of the MERTK signal is found in the lysosome”. The “cell survival (viability, CellTiter-Glo 2.0)” value in data set [2] and in data set [6] was “inhibits cell survival” in each case. Besides, the “Gas6-induced AKT phosphorylation” value in [3] is listed as “prevents Gas6-induced AKT phosphorylation”. Also, the cytokine responses entry in data set [4] and in data set [5] was “induced cytokine responses” throughout. Further, the “decrease of human MERTK” value in data set [7] (after 8 hours) was “Even greater decreases”; in data set [7] (approximately 4 hours), “more than 50%”. For the same molecule, the “human MERTK levels in the total lysate” value in data set [8] (0.3 μg/mL for 2 hours, Gas6 experiment) is recorded as “decreased”. Besides, the “degradation of human MERTK” value in data set [8] (after 4 hours, 0.3 μg/mL) was “substantial degradation”; in data set [8] (after 24 hours, 0, 0.03, 0.1, 0.3 and 1 μg/mL), “substantial degradation”. For the same molecule, in data set [9], the “viability of M2 macrophages (CellTiter-Glo 2.0)” value is given as “neither z10 nor z10-MMAE nor z10-SN-38 nor the MERTK inhibitor UNC1062 affect the viability”.
